Measurements taken from PubChem BioAssay AID485294 (National Center for Advancing Translational Sciences (NCATS), 2010).
Hit rate of the full screen: of about 370,000 compounds, about 150 (0.041%) were called active. Inconclusive results, whose numbers are uncertain, are shown with a selection of clear calls. Calls come from the whole dose curve; as a rule, active = well fitted inhibition curve with a large enough effect; inconclusive = small, poorly fitted or top-dose-only effect; inactive = flat fitted curve, though single readings scatter. Potencies of inconclusive entries are left out as doubtful fits.

These compounds were tested against Beta-lactamase (Escherichia coli (strain K12)) (UniProt P00811) (assay: qHTS Inhibitors of AmpC Beta-Lactamase (assay with detergent)). Settings: AmpC hydrolysis of nitrocefin, absorbance 480 nm, 0.01% Triton; activity change, negative = inhibition: at 114 µM (top of the series).
Method in brief: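 20 mM phosphate pH 7.0 + 0.01% (detergent screen) or 0.0001% Triton X-100; 5.3 nM AmpC reagent; cpd preinc 15 min RT; nitrocefin (800 uM stock) to start; A480 q20 s × 4 min; Activity was normalised to no-enzyme and no-compound control wells.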
Note: nearly all actives have a fitted effect of over 25% in size.
Potency is the fitted concentration of half-maximal effect; tags give direction and shape of the fitted curve.
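Throughout, for activity change, negative = inhibition: 0% = no-compound wells and -100% = no-enzyme wells.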

Sequence of UniProt P00811 (P00811 whole entry, looked up): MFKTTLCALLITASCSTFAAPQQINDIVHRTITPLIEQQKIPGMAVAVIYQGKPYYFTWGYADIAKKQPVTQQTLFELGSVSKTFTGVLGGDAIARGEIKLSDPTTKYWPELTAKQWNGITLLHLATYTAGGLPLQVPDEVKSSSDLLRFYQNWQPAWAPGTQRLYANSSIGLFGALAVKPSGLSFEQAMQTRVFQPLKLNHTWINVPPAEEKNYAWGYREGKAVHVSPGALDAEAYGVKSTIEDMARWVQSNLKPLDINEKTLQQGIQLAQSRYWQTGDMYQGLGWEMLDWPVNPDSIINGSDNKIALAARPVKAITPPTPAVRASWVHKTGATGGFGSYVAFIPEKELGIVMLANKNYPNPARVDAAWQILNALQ

| SMILES | Potency | activity change, negative = inhibition |
| --- | --- | --- |
| COC(=O)c1ccc(CSc2nnc3nc(C)cc(C)n23)cc1 | inconclusive [inhibitor, single point] | – |
| COC(=O)c1ccc2c(c1)N(CC(=O)Nc1cccc(Cl)c1C)C(=O)c1ccccc1S2 | inconclusive [inhibitor, full curve, poor fit] | – |
| Cc1cc(C(=O)Nc2cccnc2Cl)on1 | inconclusive [inhibitor, full curve, poor fit] | – |
| Cc1ccc(C(=O)c2cc3c(cc2N)OCCO3)cc1 | inconclusive [inhibitor, partial curve] | – |
| Cc1nnc(SC(C)C(=O)NC2CCCCC2C)s1 (stereo not drawn) | inconclusive [inhibitor, partial curve] | – |
| CCC(C(=O)OCC(=O)c1ccc2c(c1)NC(=O)CO2)c1ccccc1 (stereo not drawn) | inconclusive [inhibitor, partial curve, poor fit] | – |
| [O-][n+]1c2cc(C(F)(F)F)ccc2c2n1CCN=C2c1ccc(Cl)cc1 | – | inactive: -5.96% |
| Cc1ccc(C)c(OCC(O)CN2CCCCC2C)c1 (stereo not drawn) | inconclusive [inhibitor, partial curve, poor fit] | – |
| COc1ccc(C(=O)NCCCc2ccccc2)cc1OC | inconclusive [inhibitor, full curve, poor fit] | – |
| CC1CCc2c(C(=O)NCc3ccccn3)csc2C1 (stereo not drawn) | inconclusive [inhibitor, partial curve, poor fit] | – |
| CCn1ccnc1CN1CCN(CC(C)C)C(CCO)C1 (stereo not drawn) | – | inactive: 3.77% |
| COc1cccc(-n2c(=O)[nH]cc(C(=O)Nc3ccc(NC(C)=O)cc3)c2=O)c1 | inconclusive [inhibitor, full curve, poor fit] | – |
| COc1cc(Br)c(-c2sc(Nc3ccccc3)n[n+]2-c2ccc(F)cc2)cc1OC | inconclusive [inhibitor, partial curve, poor fit] | – |
| O=C(Nc1nc2c(Br)cc(Br)cc2c(=O)s1)c1ccco1 | – | inactive: 2.02% |
| Cc1c(CNC(=O)c2cnn3c2NC(c2ccccc2)CC3C(F)(F)F)cnn1C (stereo not drawn) | inconclusive [inhibitor, partial curve] | – |
| COc1cccc(CNC(=O)CCS(=O)(=O)c2ccc3c(c2)NC(=O)C(C)S3)c1 (stereo not drawn) | inconclusive [inhibitor, single point] | – |
| CSc1ccc(COC(=O)c2cc([N+](=O)[O-])ccc2N2CCOCC2)cc1 | – | inactive: -11.8% |
| O=S(=O)(c1ccccc1)N1N=C(c2ccc(Cl)cc2)CC1c1ccco1 (stereo not drawn) | inconclusive [inhibitor, full curve, poor fit] | – |
| Cc1ccc(N/C=C2\CCCCC2=O)c(C)c1 | inconclusive [inhibitor, partial curve] | – |
| CCc1ccc(OCC(=O)N/N=C/c2cc([N+](=O)[O-])ccc2N2CCCCCC2)cc1 | inconclusive [inhibitor, partial curve, poor fit] | – |
| COc1cccc(/C=C(\C#N)c2nc3ccc(C)cc3[nH]2)c1OCC(=O)O | – | inactive: 1.8% |
| CCOP(=S)(OCC)SCC(=O)NC(C(=O)O)C(C)C (stereo not drawn) | inconclusive [inhibitor, full curve, poor fit] | – |
| COc1ccccc1Cn1nnc2c(=O)[nH]c(C3CCN(C(=O)c4ccccc4Cl)CC3)nc21 | inconclusive [inhibitor, full curve, poor fit] | – |

| SMILES | Potency | activity change, negative = inhibition |
| --- | --- | --- |
| Cc1nc2nc(NC(=O)C(C)(C)C)[nH]n2c(=O)c1Cc1ccccc1 | – | inactive: 11.5% |
| CCCCCC1=CCC/C1=N\NC(=O)c1ccc2c(c1)OCO2 | inconclusive [inhibitor, full curve, poor fit] | – |
| O=C1CNC(=S)N1CCCn1ccnc1 | – | inactive: -2.66% |
| Cc1ccccc1OCCN1C(=O)C(=O)c2cccc(C)c21 | – | inactive: -14.8% |
| COc1ccccc1CCC(=O)OCC(=O)NC1CCCC1 | inconclusive [inhibitor, full curve, poor fit] | – |
| O=P(O)(O)C12CC3CC(CC(C3)C1)C2 | inconclusive [inhibitor, partial curve] | – |
| Cc1ccccc1-c1nc(CS(=O)(=O)CC(=O)Nc2cc(F)ccc2F)c(C)o1 | inconclusive [inhibitor, full curve] | – |
| COC(=O)c1ccc(NC(=O)NS(=O)(=O)c2ccc(C)cc2)cc1 | inconclusive [inhibitor, full curve, poor fit] | – |
| CN(C(=O)c1cccc(COc2ccc(Cl)cc2Cl)c1)c1ccccc1 | – | inactive: -0.509% |
| Cc1ccccc1Nc1nc(N)nc(CN(C)c2ccccc2)n1 | inconclusive [inhibitor, partial curve, poor fit] | – |
| O=C(O)CSc1nnc(-c2ccc(S(=O)(=O)N3CCCC3)cc2)n1Cc1ccco1 | inconclusive [inhibitor, full curve, poor fit] | – |
| COc1ccc(CNC(=O)c2ccc(-c3ccccc3)cc2)cc1 | – | inactive: 2.05% |
| CC(C)c1cnc2c(c1SCc1cccc(F)c1)c(=O)n(C)c(=O)n2C | – | inactive: 7.64% |
| O=C(NNC(=O)C1CCC1)c1ccccc1F | – | inactive: -12% |
| CC(=O)c1c(C)[nH]c(C(=O)NCCC2=CCCCC2)c1C | – | inactive: -5.94% |
| Cc1cc(NC(=O)CCC(=O)N(c2ccccc2)C2(C(=O)NC3CCCCC3)CCCC2)no1 | – | inactive: -12.5% |
| CCOC(=O)c1cc(C#N)c(N2CCN(C(=O)c3cccc(C(F)(F)F)c3)CC2)nc1C(F)(F)F | – | inactive: 9.65% |
| CS(=O)(=O)c1cccc(-c2nnc(NC(=O)c3ccc(S(=O)(=O)N4CCCC4)cc3)o2)c1 | inconclusive [inhibitor, full curve, poor fit] | – |
| Cn1c(=O)[nH]c(=O)c2c1nc(NCCN)n2CCOc1ccccc1 | inconclusive [inhibitor, partial curve] | – |
| CCCCNc1oc(-c2cccs2)nc1S(=O)(=O)c1ccccc1 | inconclusive [inhibitor, partial curve, poor fit] | – |
| O=[N+]([O-])c1cccc(NC(=S)Nc2nc(-c3ccccc3Cl)cs2)c1 | – | inactive: 5.08% |
| O=C(CSc1ccc2nnc(-c3ccccc3)n2n1)NCc1ccco1 | – | inactive: 4.32% |
| CCc1noc(C)c1C(=O)N1CCN(c2cccc(C)c2C)CC1 | inconclusive [inhibitor, single point] | – |

| SMILES | Potency | activity change, negative = inhibition |
| --- | --- | --- |
| O=C(CSc1nc(C(F)(F)F)cc(=O)[nH]1)N1CCCCCC1 | inconclusive [inhibitor, partial curve, poor fit] | – |
| CC(C)C(=O)Nc1ccc2c3c(cccc13)CC2 | inconclusive [inhibitor, full curve] | – |
| CCO/C=C/C(=O)N(C)CCC#N | inconclusive [inhibitor, partial curve] | – |
| Cc1ccc(NC(=O)CCN2CCC(Cc3ccccc3)CC2)cc1 | inconclusive [inhibitor, full curve] | – |
| CCC1=C(c2ccc(C)cc2)S(=O)(=O)N=C1N1CCC(C(=O)NCCCN2CCCCC2C)CC1 (stereo not drawn) | inconclusive [inhibitor, full curve, poor fit] | – |
| c1ccc(N=P(N2CCOCC2)(N2CCOCC2)N2CCOCC2)cc1 | inconclusive [inhibitor, full curve, poor fit] | – |
| CCOC(=O)[C@@H]1[C@H]2COc3cc(OC)ccc3[C@@H]2N2C(=O)N(c3ccc(C)cc3)C(=O)[C@@]12C | inconclusive [inhibitor, full curve, poor fit] | – |
| COc1ccc(CNC(=O)c2sc3nc4c(c(C(F)(F)F)c3c2N)CCC4)cc1OC | inconclusive [inhibitor, single point] | – |
| Cc1ccc(Cn2ccc(-c3cnc(-c4ccccc4)s3)n2)cc1 | – | inactive: 2.29% |
| COC(=O)NCc1ccc(S(=O)(=O)N2CCOCC2)cc1 | inconclusive [inhibitor, full curve, poor fit] | – |
| C/C(CCc1c[nH]c2ccccc12)=N\O | inconclusive [inhibitor, partial curve, poor fit] | – |
| COc1ccccc1C1/C(=C(/O)c2ccccc2)C(=O)C(=O)N1CC(C)C (stereo not drawn) | inconclusive [inhibitor, partial curve] | – |
| NC(=O)C1CCN(CC(=O)Nc2nc(-c3ccccc3)cs2)CC1 | inconclusive [inhibitor, full curve, poor fit] | – |
| COc1ccc(C2=CSC(/N=C/c3ccc(F)cc3)=NN2)cc1 | inconclusive [inhibitor, full curve, poor fit] | – |
| Fc1cc(F)c2ncc3c(-c4ccccc4)nn(-c4cccc(Cl)c4)c3c2c1 | – | inactive: 4.42% |
| CS(=O)(=O)NCCNc1ncc(C(F)(F)F)cc1Cl | inconclusive [inhibitor, partial curve] | – |
| CCCCC(=O)N(c1ccc(C)c(C)c1)C1C=CS(=O)(=O)C1 (stereo not drawn) | inconclusive [inhibitor, partial curve] | – |
| CC(=NC1CC1)C1=C(O)c2ccccc2C1=O | – | inactive: -0.607% |
| CCOc1ccc(NC(=O)CN(C)C(=O)c2sccc2-c2ccccc2)cc1OCC | inconclusive [inhibitor, single point] | – |
| CCOC(=O)c1cccc(NC(=O)c2cn(-c3cccc(OC)c3)c(=O)c3ccccc23)c1 | – | inactive: 15.6% |
| O=C(NCc1ccccc1)C1CCN(S(=O)(=O)c2cccc3cccnc23)CC1 | inconclusive [inhibitor, full curve, poor fit] | – |
| COC(=O)c1ccc(=O)c2nc3/c(=C/O)c(O)cc(=O)c3[nH]c12 | inconclusive [inhibitor, partial curve] | – |
